The target in assay [1] is hCA-IX-ECD monomeric (monomeric parental CA-IX extracellular domain) (human, UniProt Q16790 fragment). The assay is described as follows: BLI (Octet); Fc fusion captured on anti-human Fc (AHC) biosensors, CA-IX in solution, global fit.
In assay [2] the target is hCA-IX expressed on cells (SKRC52, SKRC59, 67NR^hCA-IX) (human, UniProt Q16790). The assay is described as follows: Plate-based cell binding assay, one site specific binding fit; cell line not given.

B1: sdCA9-2-Fc (Fc fusion)
chain: QVKLEESGGDLVQPGGSLRLSCAASGFTLDYYAIGWFRQAPGKEREGVSCFSSVDGSTYYADSVKGRFTISRDNAKNMVYLQMNSLKPEDTAIYYCAAELYGELGVATVQAMCRLTTPGGDYWGQGTQVTVSSA[no letters for human IgG1 Fc]
notes: The chain is built here from its parts without the leader; Human IgG1 Fc fusion produced in CHO3E7 cells and purified on protein A; also called sdCA9-Fc 2
A word on the Kd: it is the equilibrium constant for the complex coming apart. On to B1, for which the values for the Kd in assay [1] and in assay [2] were 17.8 nM and 0.658 nM, respectively.

B2: sdCA9-1-Fc (Fc fusion)
chain: QVQLVESGGGLVQAGGSLRLSCAASGFTFDDWAIGWFRQAPGKEREGVSCISKRHGTTHYADSVKGRFTISSDNAKNTVYLRMNGLKPEDTAVYYCAASSWGSCTVATMRDVDRYDYDYWGQGTQVTVSSA[no letters for human IgG1 Fc]
notes: The chain is built here from its parts without the leader; Human IgG1 Fc fusion produced in CHO3E7 cells and purified on protein A. Fc-mediated dimerisation is described only in general terms; also called sdCA9-Fc 1
For B2, the Kd came out at 16.3 nM in assay [1] and 3.49 nM in assay [2].

The values above are taken from patent US20240076406A1 (NATIONAL RESEARCH COUNCIL OF CANADA, published 2024).
